Patent publication US11407811B2, “Fusion protein, preparation method therefor and use thereof” (JIANGSU RONGTAI BIOTECH CO., LTD., priority 2017, dated 2022)

Experiments:
[1] = system: breast cancer cell MDA-MB-231; experiment: MTT assay, proliferation of breast cancer cell MDA-MB-231; format: cell-based
Protocol: (§1) The MTT assay was used to detect the inhibitory effect of the integrin blocker fusion protein obtained in Example 1 on the proliferation of various tumor cells, including melanoma cell B16F10, gastric cancer cell MGC-803, lung cancer cell A549, liver cancer cell Hep-G2, breast cancer cell MDA-MB-231, colon cancer cell HCT-116, human glioma U87, and cervical cancer cell Hela.
(§2) The tumor cells were cultured in a 5% CO2 incubator at 37° C. to a density of 90% or more, and collected by trypsinization. The cells were resuspended in the culture liquid and counted under a microscope. The cell concentration was adjusted to 3.0×10^4 cells/mL. The cell suspension was inoculated into a 96-well plate at 100 μL per well and cultured overnight in a 5% CO2 incubator at 37° C. […] After the cells were fully adhered, each dilution was added to a 96-well plate at 100 μL per well, respectively. […] 20 μL of 5 mg/mL MTT was added to each well of a 96-well plate, and incubation was continued for 4 hours. The medium was aspirated and 100 μL of DMSO per well were added to dissolve. The absorbance was measured at 570 nm with a microplate reader with a reference wavelength of 630 nm, and the proliferation inhibition (PI) was calculated. The formula is as follows: […]
(§3) where Ntest is the OD value of the test group and Ncontrol is the OD value of the blank control group.
(§4) The test was repeated 5 times independently. The results obtained from the test were calculated as mean±SD, and statistical t-test was performed. P<0.05 was considered as a significant difference, and P<0.01 was considered as an extremely significant difference.

[2] = system: corneal neovascularization in mice; experiment: Corneal neovascularization induced by alkali burn in BALB/c mice (MVD, CD31); format: in vivo; details: for number of CD31-positive new blood vessels: compared with the control group; for MVD: dose 64 μg, intravitreal injection, day 14 after alkali burn
Text: 15 healthy male BALB/c mice with weight of 20-25 g were examined under a slit lamp microscope for the anterior segment of both eyes and the appendage to exclude ocular lesions. The eyes were given 0.3% loxacin eye drops 1 day before the preparation of alkali burn model, twice a day. After the mice were anesthetized by intraperitoneal injection of 1.8% Avertin, single-layer filter paper with a diameter of 2 mm was clamped with tweezers, and immersed in a 1 mol/L sodium hydroxide solution to reach a saturated state, and the excess liquid was removed. The filter paper was placed in the central corneal of BALB/c mice for 40 s and then discarded, and the burned area and conjunctival sac were immediately rinsed with 15 mL of PBS for 1 min. Excess water was wiped away with cotton swabs, and under an operating microscope, the corneal epithelium was vortically scraped off by paralleling a corneal scraping knife to the limbus corneae. The subcutaneous stromal layer and limbus corneae was carefully not to be injured, and after surgery, an erythromycin eye ointment was applied into the conjunctival sac to prevent infection.
15 mice were randomly divided into […], with 5 rats in each group. […] On day 14 after alkali burn, the neovascularization of the corneal in each group was photographed and recorded under the slit lamp microscope for photographing anterior segment of the eye. […] The blood was washed with physiological saline, and the eyeballs were fixed in 4% paraformaldehyde for 1.5 h, dehydrated in PBS containing 30% sucrose overnight, embedded in an OCT tissue freezing medium, stored in a refrigerator at −80° C., subjected to cryosection at […] and detected by immunohistochemistry for CD31 expression.
Microvessel density (MVD) is an indicator for evaluating angiogenesis. An anti-CD31 antibody immunohistochemistry was used to label vascular endothelial cells and the number of microvessels per unit area was counted to measure the extent of neovascularization. Standards for counting microvessels were that under a microscope, the endothelial cells or cell clusters which were clearly demarcated from adjacent tissues in the corneal tissue and were stained tan or brown were counted as the new blood vessels. The number of new blood vessels in the entire section was counted under a 10×20 microscope. After the corneal tissue was photographed, the area of the entire corneal tissue was calculated by image processing software Image J, and the density of new blood vessels in the entire section in this example was determined.

[3] = system: xylene-induced ear swelling in mice; experiment: Xylene-induced ear swelling in mice; format: in vivo; details: for Swelling degree / PI: injection; for Swelling degree: 2 h after xylene, mice; for PI: ear swelling vs control; for inhibition of xylene-induced ear swelling: high doses
Protocol: 80 Kunming mice were divided into 8 groups with 10 mice for each group and numbered. A physiological saline group was used as a blank control group, an aspirin group (200 mg/kg) was used as a positive control group, and fusion protein I, protein II, protein III, protein IV and protein V at high, medium and low doses (128, 32, 8 mg/kg) were used as experimental groups. Mice were administered once by injection, while EDSM needed to be administered twice a day for 5 consecutive days. The blank control group was given an equal volume of physiological saline. After the fifth day, 0.05 mL of xylene was applied to both sides of the right ears of the mice to induce inflammation, and the left ears were not applied and were normal ears. After 2 h, the mice were sacrificed by dislocation, and the ears were cut along the auricle. Ear pieces were taken with a puncher and weighed, and the swelling degree and swelling rate were calculated. Swelling degree=right ear piece weight-left ear piece weight, swelling rate=(swelling degree/left ear piece weight)×100%.

[4] = system: colon cancer cells HCT-116; experiment: MTT assay, proliferation of colon cancer cell HCT-116; format: cell-based
Protocol: as §1, §2, §3, §4

B1: Protein I: IgG1-Fc linked to antiangiogenesis polypeptide EDSM-Y via a flexible linker; SEQ ID NO: 15 (protein)
chain: [sequence of human IgG1 Fc not given]GGGGSGGGGSGGGGSFQPVLHLVALNSPLSGGMRGIRGADFQCFQQARAVGLAGTFRAGGGGRGD
A570 nm/A630 nm ([1]; dose 1 μg/mL): 0.9977 ± 0.0403
PI (%) ([1]; dose 1 μg/mL): 3.96%
A570 nm/A630 nm ([1]; dose 2 μg/mL): 0.9665 ± 0.0397
PI (%) ([1]; dose 2 μg/mL): 6.96%
A570 nm/A630 nm ([1]; dose 4 μg/mL): 0.9201 ± 0.0382
PI (%) ([1]; dose 4 μg/mL): 11.43%
A570 nm/A630 nm ([1]; dose 8 μg/mL): 0.8815 ± 0.0410
PI (%) ([1]; dose 8 μg/mL): 15.14%
A570 nm/A630 nm ([1]; dose 16 μg/mL): 0.8006 ± 0.0287
PI (%) ([1]; dose 16 μg/mL): 22.93%
A570 nm/A630 nm ([1]; dose 32 μg/mL): 0.7586 ± 0.0336
PI (%) ([1]; dose 32 μg/mL): 26.97%
A570 nm/A630 nm ([1]; dose 64 μg/mL): 0.6988 ± 0.0296
PI (%) ([1]; dose 64 μg/mL): 32.73%
A570 nm/A630 nm ([1]; dose 128 μg/mL): 0.6587 ± 0.0314
PI (%) ([1]; dose 128 μg/mL): 36.59%
A570 nm/A630 nm ([1]; dose 256 μg/mL): 0.6023 ± 0.0327
PI (%) ([1]; dose 256 μg/mL): 42.02%
number of CD31-positive new blood vessels [2]: significantly reduced
MVD [2]: 26.94 ± 5.91
Swelling degree ([3]; 8 mg/kg): 6.24 ± 0.26 mg
PI ([3]; 8 mg/kg): 6.17%
Swelling degree ([3]; 32 mg/kg): 5.08 ± 0.32 mg
PI ([3]; 32 mg/kg): 23.61%
Swelling degree ([3]; 128 mg/kg): 4.03 ± 0.27 mg
PI ([3]; 128 mg/kg): 39.40%
inhibition of xylene-induced ear swelling [3]: could significantly inhibit xylene-induced ear swelling
A570 nm/A630 nm ([4]; dose 1 μg/mL): 0.8205 ± 0.0411
PI (%) ([4]; dose 1 μg/mL): 6.78%
A570 nm/A630 nm ([4]; dose 2 μg/mL): 0.7859 ± 0.0382
PI (%) ([4]; dose 2 μg/mL): 10.71%
A570 nm/A630 nm ([4]; dose 4 μg/mL): 0.7587 ± 0.0371
PI (%) ([4]; dose 4 μg/mL): 13.80%
A570 nm/A630 nm ([4]; dose 8 μg/mL): 0.7110 ± 0.0413
PI (%) ([4]; dose 8 μg/mL): 19.22%
A570 nm/A630 nm ([4]; dose 16 μg/mL): 0.6778 ± 0.0285
PI (%) ([4]; dose 16 μg/mL): 22.99%
A570 nm/A630 nm ([4]; dose 32 μg/mL): 0.6114 ± 0.0331
PI (%) ([4]; dose 32 μg/mL): 30.54%
A570 nm/A630 nm ([4]; dose 64 μg/mL): 0.5468 ± 0.0296
PI (%) ([4]; dose 64 μg/mL): 37.88%
A570 nm/A630 nm ([4]; dose 128 μg/mL): 0.4988 ± 0.0315
PI (%) ([4]; dose 128 μg/mL): 43.33%
A570 nm/A630 nm ([4]; dose 256 μg/mL): 0.4458 ± 0.0324
PI (%) ([4]; dose 256 μg/mL): 49.35%

B2: Protein III: mIgG4-Fc linked to antiangiogenesis polypeptide EDSM-Y via a flexible linker; SEQ ID NO: 19 (protein)
chain: [sequence of human IgG4 Fc with S228P F234A L235A (EU numbers) and a few adjoining residues not given]GGGGSGGGGSGGGGSFQPVLHLVALNSPLSGGMRGIRGADFQCFQQARAVGLAGTFRAGGGGRGD
A570 nm/A630 nm ([1]; dose 1 μg/mL): 0.9913 ± 0.0412
PI (%) ([1]; dose 1 μg/mL): 4.57%
A570 nm/A630 nm ([1]; dose 2 μg/mL): 0.9663 ± 0.0392
PI (%) ([1]; dose 2 μg/mL): 6.98%
A570 nm/A630 nm ([1]; dose 4 μg/mL): 0.9103 ± 0.0387
PI (%) ([1]; dose 4 μg/mL): 12.37%
A570 nm/A630 nm ([1]; dose 8 μg/mL): 0.8714 ± 0.0354
PI (%) ([1]; dose 8 μg/mL): 16.11%
A570 nm/A630 nm ([1]; dose 16 μg/mL): 0.7956 ± 0.0291
PI (%) ([1]; dose 16 μg/mL): 23.41%
A570 nm/A630 nm ([1]; dose 32 μg/mL): 0.7601 ± 0.0275
PI (%) ([1]; dose 32 μg/mL): 26.83%
A570 nm/A630 nm ([1]; dose 64 μg/mL): 0.6963 ± 0.0211
PI (%) ([1]; dose 64 μg/mL): 32.97%
A570 nm/A630 nm ([1]; dose 128 μg/mL): 0.6613 ± 0.0255
PI (%) ([1]; dose 128 μg/mL): 36.34%
A570 nm/A630 nm ([1]; dose 256 μg/mL): 0.6213 ± 0.0230
PI (%) ([1]; dose 256 μg/mL): 40.19%
number of CD31-positive new blood vessels [2]: significantly reduced
MVD [2]: 25.74 ± 5.39
Swelling degree ([3]; 8 mg/kg): 6.18 ± 0.29 mg
PI ([3]; 8 mg/kg): 7.07%
Swelling degree ([3]; 32 mg/kg): 5.23 ± 0.16 mg
PI ([3]; 32 mg/kg): 21.35%
Swelling degree ([3]; 128 mg/kg): 4.31 ± 0.22 mg
PI ([3]; 128 mg/kg): 35.19%
inhibition of xylene-induced ear swelling [3]: could significantly inhibit xylene-induced ear swelling
A570 nm/A630 nm ([4]; dose 1 μg/mL): 0.8333 ± 0.0414
PI (%) ([4]; dose 1 μg/mL): 5.33%
A570 nm/A630 nm ([4]; dose 2 μg/mL): 0.7964 ± 0.0397
PI (%) ([4]; dose 2 μg/mL): 9.52%
A570 nm/A630 nm ([4]; dose 4 μg/mL): 0.7623 ± 0.0382
PI (%) ([4]; dose 4 μg/mL): 13.39%
A570 nm/A630 nm ([4]; dose 8 μg/mL): 0.7022 ± 0.0351
PI (%) ([4]; dose 8 μg/mL): 20.22%
A570 nm/A630 nm ([4]; dose 16 μg/mL): 0.6663 ± 0.0298
PI (%) ([4]; dose 16 μg/mL): 24.30%
A570 nm/A630 nm ([4]; dose 32 μg/mL): 0.6023 ± 0.0276
PI (%) ([4]; dose 32 μg/mL): 31.57%
A570 nm/A630 nm ([4]; dose 64 μg/mL): 0.5557 ± 0.0219
PI (%) ([4]; dose 64 μg/mL): 36.87%
A570 nm/A630 nm ([4]; dose 128 μg/mL): 0.4878 ± 0.0253
PI (%) ([4]; dose 128 μg/mL): 44.58%
A570 nm/A630 nm ([4]; dose 256 μg/mL): 0.4502 ± 0.0238
PI (%) ([4]; dose 256 μg/mL): 48.85%
